Assay results taken from PubChem BioAssay AID1345082 (National Center for Advancing Translational Sciences (NCATS), 2018).
In all, about 94,000 compounds went through this assay and about 4,000 (4.3%) were called active. Inconclusive results, whose numbers are uncertain, are shown with a selection of clear calls. Calls come from the whole dose curve; as a rule, active = well fitted inhibition curve with a large enough effect; inconclusive = small, poorly fitted or top-dose-only effect; inactive = no such curve, though single readings can be large or run the other way. Potencies beside an inconclusive call are fits to weak or partial responses and may not hold up.

Experiment: Cytotoxic Profiling in NIH 3T3 Cell Line of Diverse Libraries Using Quantitative High-Throughput Screening; note: nearly all actives have a fitted effect of over 55% in size
Details: NIH 3T3 viability, CellTiter-Glo ATP luminescence, 48-72 h; series mostly up to 96.7 µM
Procedure, shortened: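 Cytotoxicity is measured as loss of cellular ATP: NIH 3T3 cells (400/well) are exposed to compound for 48 or 72 hr at 37 °C, then CellTiter-Glo luminescence is imaged after 10 min at room temperature.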
Potency is the fitted concentration of half-maximal effect; tags give direction and shape of the fitted curve.

Which Potency does the source give for O=C(O)Cn1ccc2cc(OCC3CCN(C(=O)C4CCCC4)CC3)cnc21 here?
Its Potency is active: 100 µM.

With CCc1noc(CC2CCOC3(CCN(S(=O)(=O)c4ccc(F)c(F)c4)CC3)C2)n1 (stereo not drawn) as the compound, how does the Potency read?
The Potency was inconclusive: 28.2 µM [inhibitor, full curve].

Which Potency does the source give for COc1ccc2c3c1C(c1ccccc1)N(Cc1ccccc1)CC3=CC(C)(C)CO2 (stereo not drawn) here?
The Potency was “inactive”.

For CCCN1CCN(C(=O)Cn2c(C)ccc(NC(=O)Nc3ccccc3)c2=O)CC1, which Potency is on record?
Its Potency is “inactive”.

Which Potency does the source give for Cc1ccn(CC(=O)N2CCCCCCNC(=O)[C@@H]3CCCC[C@@H]32)n1 here?
The Potency was “inactive”.

With CC(C)CN1C[C@@H](NC(=O)c2cccnc2)C[C@H]1CO as the compound, how does the Potency read?
Its Potency is “inactive”.

Which Potency does the source give for Clc1cccc(Nc2cnc3ccc(N4CCOCC4)nn23)c1 here?
The Potency was inconclusive: 39.8 µM [inhibitor, partial curve, poor fit].

For Cc1ccc(CNC(=O)c2nnn3cc(-c4ccc(F)cc4)[nH]c(=O)c23)cc1, which Potency is on record?
Its Potency is inconclusive: 50.1 µM [inhibitor, partial curve, poor fit].

Which Potency does the source give for O=C1CCN(S(=O)(=O)c2ccccc2)CCCN(C(=O)CCC2CCCC2)CCN1 here?
Its Potency is “inactive”.

For Cc1cc(=O)cc(C(=O)NC2CC(c3cc(=O)[nH]c(C4CC4)n3)C2)o1 (stereo not drawn), which Potency is on record?
Its Potency is inconclusive: 79.4 µM [inhibitor, single point].

For CCCCNC(=O)c1ccc2c(c1)n(Cc1cccc(OC)c1)c(=O)c1ccnn12, which Potency is on record?
Its Potency is inconclusive: 50.1 µM [inhibitor, partial curve, poor fit].

Which Potency does the source give for CCc1cc(=O)n(CC(=O)Nc2cc(OC)c(OC)c(OC)c2)c(-c2ccccc2)n1 here?
Its Potency is inconclusive: 44.7 µM [inhibitor, partial curve, poor fit].

For O=C(c1ccccn1)N1CCC(Oc2ccc(-c3noc(-c4ccccc4)n3)cc2)C1 (stereo not drawn), which Potency is on record?
The Potency was inconclusive: 44.7 µM [inhibitor, partial curve, poor fit].

With COc1ccccc1-c1cc(-c2ccc(=O)[nH]c2)c2cncn2c1 as the compound, how does the Potency read?
Its Potency is inconclusive: 79.4 µM [inhibitor, partial curve, poor fit].

For O=C1CCC(C(=O)NCc2ccc(-c3cnc4c(Oc5ccccc5)nccn34)cc2)N1 (stereo not drawn), which Potency is on record?
The Potency was inconclusive: 63.1 µM [inhibitor, partial curve, poor fit].

With CN(C)c1ccc2nnc(-c3cc(C(=O)NCCc4ccccn4)ccn3)n2n1 as the compound, how does the Potency read?
The Potency was inconclusive: 100 µM [inhibitor, partial curve, poor fit].

For COc1ccc(NC(=O)O[C@@H]2CO[C@H]3[C@@H]2OC[C@@H]3NCc2ccc(-c3ccccc3)cc2)cc1, which Potency is on record?
The Potency was inconclusive: 31.6 µM [inhibitor, partial curve].

For O=C(NC1CCCN(c2cc(-c3ccccc3)[nH]n2)C1)c1cccc(Cl)c1 (stereo not drawn), which Potency is on record?
The Potency was inconclusive: 44.7 µM [inhibitor, partial curve, poor fit].

With CC(C)Nc1nccc(C2(c3ccccc3Cl)CCNCC2)n1 as the compound, how does the Potency read?
The Potency was “inactive”.

Which Potency does the source give for CO[C@H]1C(=O)N(C(C)C)[C@H]1C1CCN(C(=O)Cn2nc(C(F)(F)F)cc2C)CC1 here?
Its Potency is “inactive”.

Which Potency does the source give for Cn1cnc(S(=O)(=O)N2CCCC(Cn3cnc4cccnc43)C2)c1 (stereo not drawn) here?
Its Potency is “inactive”.

Which Potency does the source give for CCCNC(=O)CN1CCCc2nc(-c3ccccc3)ncc2C1=O here?
The Potency was “inactive”.

Which Potency does the source give for CNC(=O)c1cc(C2CC2)nc2c1c(C1CCN(C(=O)c3cccc(Cl)c3)C1)nn2C (stereo not drawn) here?
Its Potency is inconclusive: 28.2 µM [inhibitor, full curve, poor fit].

For COCCOCC(=O)N1CC2CC(C1)[C@H]1CCCC(=O)N1C2 (stereo partly drawn), which Potency is on record?
Its Potency is “inactive”.

For CN1CCN(C(=O)c2ccnc(-c3nnc4ccc(N(C)C)nn34)c2)CC1, which Potency is on record?
The Potency was inconclusive: 100 µM [inhibitor, single point].

Which Potency does the source give for Cc1ccccc1C(=O)N1CCc2c(nc3cc[nH]n3c2=O)C1 here?
The Potency was inconclusive: 70.8 µM [inhibitor, single point].

Which Potency does the source give for CC1CCCN1C(=O)c1cc(-c2cnn(C(C)C)c2)nc2cc(F)ccc12 (stereo not drawn) here?
Its Potency is inconclusive: 39.8 µM [inhibitor, full curve, poor fit].

For O=C(NC1CCCCC1)c1cn2cc(-c3cccnc3)sc2n1, which Potency is on record?
The Potency was inconclusive: 79.4 µM [inhibitor, partial curve].

With Cc1cc(C)cc(-c2cccc(CN)c2)c1 as the compound, how does the Potency read?
Its Potency is active: 39.8 µM.

With COCc1nc2nc(-c3ccccc3)c(-c3ccc(N4CCN(C)CC4)nc3)cc2n1C as the compound, how does the Potency read?
Its Potency is inconclusive: 89.1 µM [inhibitor, partial curve, poor fit].

For Cc1nc(-c2ccc(Cl)cc2)n(Cc2ccc(F)cc2F)c(=O)c1CCO, which Potency is on record?
Its Potency is inconclusive: 44.7 µM [inhibitor, partial curve, poor fit].

Which Potency does the source give for COc1cccc(CN2C(=O)OC3(CCN(C(=O)C4CCC4)CC3)C2(C)c2cccnc2)c1 (stereo not drawn) here?
Its Potency is inconclusive: 5.62 µM [inhibitor, full curve, poor fit].

With c1csc(-c2nc3nccc(-c4cccs4)n3n2)c1 as the compound, how does the Potency read?
The Potency was inconclusive: 11.2 µM [inhibitor, full curve, poor fit].

With CN(Cc1ccc(F)cc1)C(=O)c1cn(Cc2ccccc2C(F)(F)F)nn1 as the compound, how does the Potency read?
The Potency was inconclusive: 8.91 µM [inhibitor, full curve, poor fit].

Which Potency does the source give for Cc1cc(=O)n(CC(=O)Nc2ccc(Br)cc2)c(N(C)Cc2ccccc2)n1 here?
The Potency was inconclusive: 12.6 µM [inhibitor, full curve, poor fit].

For Cn1c2c(cc(C(=O)N3CC[C@](C)(O)[C@@H](O)C3)c1=O)CCCC2, which Potency is on record?
Its Potency is “inactive”.

With COc1ccc(C2Cn3cnc(C(=O)N4CCC(C(=O)NCC5CCCO5)CC4)c3CO2)cc1 (stereo not drawn) as the compound, how does the Potency read?
Its Potency is “inactive”.

With CC(C)c1ccc(CN2C[C@@H]3C(=O)N(CCCN4CCCC4=O)C(=O)[C@@H]3C2)cc1 as the compound, how does the Potency read?
Its Potency is “inactive”.

Which Potency does the source give for Cc1ncccc1-c1nc2cc(C(=O)NCC3CCCCC3)ccc2o1 here?
Its Potency is “inactive”.

Which Potency does the source give for CC(C)CC(=O)N[C@H](C)c1c(-c2ccc(Cl)cc2)noc1C(=O)O here?
The Potency was inconclusive: 112 µM [inhibitor, single point].

For COc1cccc(-c2cccc(C(=O)N3CCN(C(=O)Nc4ccc(Cl)cc4)CC3)c2)c1, which Potency is on record?
Its Potency is inconclusive: 50.1 µM [inhibitor, partial curve, poor fit].

Which Potency does the source give for COc1cccc(N2CCN(c3nc(C(=O)NCc4ccco4)cs3)CC2)c1 here?
The Potency was inconclusive: 50.1 µM [inhibitor, partial curve, poor fit].

Which Potency does the source give for O=C(c1ccc(F)c(F)c1)N1CCN(C(=O)c2nnn3c2COC(c2ccccc2)C3)CC1 (stereo not drawn) here?
The Potency was inconclusive: 39.8 µM [inhibitor, partial curve, poor fit].

With COc1ccc(-c2noc(-c3cccn3CC(=O)Nc3ccc(N(C)C)cc3)n2)cc1F as the compound, how does the Potency read?
Its Potency is “inactive”.

For COc1ccc(-c2noc(-c3cccn3CC(=O)Nc3cccc(Cl)c3)n2)cc1F, which Potency is on record?
The Potency was “inactive”.

For CCOC(=O)C1CCCN(C(=O)c2cn3cc(-c4ccc(OC)cc4)sc3n2)C1 (stereo not drawn), which Potency is on record?
The Potency was inconclusive: 50.1 µM [inhibitor, partial curve, poor fit].

With Cn1ccnc1CN1CCOC[C@H](Oc2ccc(C(F)(F)F)cc2)C1 as the compound, how does the Potency read?
The Potency was inconclusive: 12.6 µM [inhibitor, full curve, poor fit].

Which Potency does the source give for Cc1ccccc1-n1nc(C)c([C@H]2C=C[C@@H](OC(=O)N[C@H](C)c3ccccc3)C2)c1C here?
The Potency was inconclusive: 112 µM [inhibitor, partial curve, poor fit].

Which Potency does the source give for Cc1ccc(-c2ccc3nnc(CNC(=O)c4cccc(N(C)C)c4)n3n2)cc1C here?
Its Potency is inconclusive: 50.1 µM [inhibitor, partial curve, poor fit].

Which Potency does the source give for COc1ccc(-c2cc(C(=O)NCc3c(C)cc(C)[nH]c3=O)c3c(c2)N(C(C)C)CCO3)cc1 here?
Its Potency is inconclusive: 25.1 µM [inhibitor, full curve, poor fit].

With O=C(Cc1ccccc1)N1CCC2(CC1)CC(c1cccc(C(F)(F)F)c1)=NO2 as the compound, how does the Potency read?
The Potency was inconclusive: 50.1 µM [inhibitor, partial curve, poor fit].

For CCc1nc(N2CCc3ccccc3C2)ncc1C(=O)O, which Potency is on record?
Its Potency is active: 25.1 µM.

For CN1C[C@@H](NS(=O)(=O)c2ccccc2)C[C@H]1c1nc(Cc2ccccc2)no1, which Potency is on record?
Its Potency is inconclusive: 126 µM [inhibitor, single point].

With CN1c2cc(C(=O)Nc3ccc4c(c3)OCCO4)ccc2C(=O)N2CCCCCC21 (stereo not drawn) as the compound, how does the Potency read?
Its Potency is inconclusive: 50.1 µM [inhibitor, partial curve, poor fit].

Which Potency does the source give for c1ccc(CN2CCNc3cnc(Nc4ccncn4)cc3C2)cc1 here?
The Potency was inconclusive: 100 µM [inhibitor, partial curve].

Which Potency does the source give for O=C(N1CCC(NS(=O)(=O)c2ccccc2)CC1)N1CC2CC(C1)[C@H]1CCCC(=O)N1C2 (stereo partly drawn) here?
The Potency was “inactive”.

Which Potency does the source give for COCCN(C)C(=O)c1ccc2c(c1)NC(C)(COc1cccnc1)CO2 (stereo not drawn) here?
The Potency was inconclusive: 89.1 µM [inhibitor, partial curve].

For CCNC(=O)N1CCC(C2CCN(C(C)=O)CC2)C1 (stereo not drawn), which Potency is on record?
The Potency was “inactive”.

With N#Cc1ccc(CN2CCn3c(nn(-c4cccc(Cl)c4)c3=O)C2)cc1 as the compound, how does the Potency read?
The Potency was inconclusive: 35.5 µM [inhibitor, partial curve].

With O=C(c1nnc(COc2ccc3c(c2)OCO3)n1Cc1ccccc1)N1CCC[C@@H]1c1ccc(Br)cc1 as the compound, how does the Potency read?
The Potency was inconclusive: 11.2 µM [inhibitor, full curve, poor fit].

Which Potency does the source give for COc1cccc(CC(=O)N2CCC3(CC2)NC(=O)N(c2ccccc2)N3)c1 here?
Its Potency is inconclusive: 25.1 µM [inhibitor, full curve, poor fit].

Which Potency does the source give for COc1cc(NC(=O)C2=NO[C@@H]3CN(Cc4ccc(F)cc4)C[C@H]23)ccc1F here?
The Potency was inconclusive: 89.1 µM [inhibitor, partial curve, poor fit].

With Cn1c(C(=O)NCCc2ccccn2)nc2nc(-c3ccccc3)c(Cl)cc21 as the compound, how does the Potency read?
The Potency was inconclusive: 89.1 µM [inhibitor, partial curve, poor fit].
